According to paper doi:10.1101/2022.12.30.522308 (bioRxiv, 2022):

Target: T1, extracellular domain of human IL-9 receptor α (hIL-9Rα) (human, UniProt Q01113-1 40-261)
T1 sequence (looked up): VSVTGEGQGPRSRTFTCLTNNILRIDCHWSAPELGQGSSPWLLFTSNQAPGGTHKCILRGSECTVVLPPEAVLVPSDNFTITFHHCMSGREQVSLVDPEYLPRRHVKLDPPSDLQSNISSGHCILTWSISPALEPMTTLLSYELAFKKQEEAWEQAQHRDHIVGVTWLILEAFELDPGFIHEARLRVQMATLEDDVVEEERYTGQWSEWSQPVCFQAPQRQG
Assay: BLI

- binding result: binds
B1: hIL-9^T117M, produced in HEK293T cells, biotinylated on the Avi-tag (ligand)
chain: not shown
modifications: biotin on the Avi-tag (in vitro, BirA)
